Source: PubChem BioAssay AID1347073 (National Center for Advancing Translational Sciences (NCATS), 2019)
Out of some 45,000 compounds screened, about 200 (0.44%) were called active. Not shown: some 7% with an inconclusive outcome. Calls come from the whole dose curve; as a rule, active = well fitted activation curve with a large enough effect; inconclusive = small, poorly fitted or top-dose-only effect; inactive = no such curve, though single readings can be large or run the other way. The list shows a part of the results.

Test: qHTS of TDP-43 Inhibitors: NCGC Sytravon Library Screen; note: 0% is about no effect; nearly all actives have a fitted effect of over 55% in size
Conditions: yeast TDP-43 toxicity rescue, BacTiter-Glo growth, 24 h; series mostly up to 46.1 µM; growth rescue (activation): at the top concentration
Method in brief: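 TDP-43-expressing yeast, pregrown in raffinose, seeded at OD600 0.02 in galactose medium with compound for 24 hr at 30 deg C. Growth read by BacTiter-Glo luminescence, so rescue of toxicity appears as activation.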

Structure (SMILES)	growth rescue (activation)
COc1ccccc1CNc1nc(NCCOc2ccccc2Cl)c2sccc2n1	inactive: 14.4%
CCc1ccc(NC(=O)C2CCCN(S(=O)(=O)c3cccs3)C2)cc1 (centres undefined)	inactive: 6.72%
CC(=O)N1N=C(c2cccnc2)OC1c1ccc(C(C)C)cc1 (centres undefined)	inactive: 8.99%
COc1ccc(-c2cc(C(=O)N3CCN(c4ccccc4F)CC3)c3ccccc3n2)c(OC)c1	inactive: -86.1%
COc1cccc(/C=C2/SC(=O)N(C)C2=O)c1OCc1ccc(C(=O)O)cc1	inactive: 2.44%
CC1SC(=S)N(c2ccc(N(C)C)cc2)C1=O (centres undefined)	inactive: -9.46%
COc1ccc(NC(=O)CNC(=O)Cc2ccccc2)cc1	inactive: 0.802%
Cc1ccc(C(=O)CCC(=O)Nc2cccc(C(F)(F)F)c2)cc1	inactive: 27.2%
CC(=O)c1ccc(NC(=O)COC(=O)Cn2cnc3ccccc32)cc1	inactive: 22%
Cn1ncc(N=Cc2ccc([N+](=O)[O-])cc2)c1C(=O)Nc1ccccc1	inactive: 0.812%
c1ccc2[nH]c(CSc3nnc(-c4ccncc4)o3)nc2c1	inactive: 2.49%
COC(=O)[C@H](CC(C)C)NC(=O)Nc1ccc(F)cc1	inactive: 0.555%
Nc1ccc(-c2c3ccc(=O)cc-3oc3cc(O)ccc23)cc1C(=O)O	inactive: -4.45%
COc1ccc(CCCNC(=O)C2Cc3c(-c4ccc(NC(C)=O)cc4)ccnc3O2)cc1 (centres undefined)	inactive: 1.24%
CCn1c(CC(=O)Nc2ccccc2)nnc1SCC(=O)NC1CCCC1	inactive: -8.85%
CS(=O)(=O)c1ccc(C(=O)OC2CCOC2=O)cc1[N+](=O)[O-] (centres undefined)	inactive: -1.5%
Cc1nonc1CN(C)C(=O)CC1C(=O)NCCN1Cc1ccccc1C(F)(F)F (centres undefined)	inactive: 11.8%
COc1ccc2nc(N3C(=O)C(O)=C(C(=O)c4ccco4)C3c3ccco3)sc2c1 (centres undefined)	inactive: -2.25%
COc1ccccc1C/C(N)=N/OC(=O)c1cccc([N+](=O)[O-])c1C	inactive: -71%
CN1/C(=C/C(=O)COC(=O)CN2C(=O)C3CC=CCC3C2=O)C(C)(C)c2ccccc21 (centres undefined)	inactive: 8%
Cc1cc(CNC(=O)c2cccc([N+](=O)[O-])c2)c2ccccc2n1	inactive: -4.65%
O=C(NCC1c2ccccc2CCN1C(=O)CN1C(=O)c2ccccc2C1=O)C1CCCCC1 (centres undefined)	inactive: 5.61%

Structure (SMILES)	growth rescue (activation)
CCOC(=O)c1cnc2ccc(Cl)cc2c1Nc1ccc(S(=O)(=O)Nc2ncccn2)cc1	inactive: 4.37%
Cc1ccc(C)c(Cn2c(=O)n(CCCC(=O)NCc3ccc4c(c3)OCO4)c(=O)c3sccc32)c1	inactive: 4.42%
COc1cc2c(cc1OC)CN(C(C)C(=O)N1CCc3ccccc31)CC2 (centres undefined)	inactive: 4.95%
COc1ccc(C(=O)C[n+]2ccccc2C)cc1	inactive: -7.85%
Cc1cc([N+](=O)[O-])ccc1NCc1ccccc1[N+](=O)[O-]	inactive: 17.5%
Cc1cccc(-c2nc(C#N)c(N3CCC(C)CC3)o2)c1	inactive: 6.27%
CCOC(=O)c1c(C)[nH]c(C(=O)NNC(=O)c2ccccc2F)c1C	inactive: 10.8%
CC(C)(C)n1cnc2cc(NCc3ccc(Br)cc3)ccc21	inactive: -12.2%
CCOC(=O)C1(CCCc2ccccc2)CCN(Cc2ccn[nH]2)CC1	inactive: -4.99%
COC(=O)CC1C(=O)NCCN1C(=S)Nc1ccc(F)cc1 (centres undefined)	inactive: 7.21%
Cc1ccc(C(=O)N2N=C(c3ccccc3)CC2(O)C(F)(F)F)o1 (centres undefined)	inactive: 31.4%
CC(C(=O)NC(C)(C)C)N(C(=O)CS(=O)CC(=O)Nc1ccc(F)cc1)c1ccccc1F (centres undefined)	inactive: 10.9%
O=C(COC(=O)c1ccc(F)cc1F)NCc1ccc2c(c1)OCO2	inactive: 18.6%
CC1CCC2(CC1)N=C(c1ccccc1)C(=O)N2CC(=O)Nc1ccc(F)c(Cl)c1 (centres undefined)	inactive: 8.55%
CN(Cc1ccccc1)S(=O)(=O)c1ccc(Cl)c(C(=O)OCC(N)=O)c1	inactive: 27.6%
CC1=C(C)CC(C(=O)NC(C)CCc2ccccc2)C(C(=O)O)C1 (centres undefined)	inactive: 9.21%
CC(=O)c1ccc(S(=O)(=O)NC2CCCCCCC2)cc1	inactive: 10%
COc1cccc(CNC(=O)c2ccc3c(c2)nc2n3CCCCC2)c1OC	inactive: -3.68%
COc1ccc(/C=C/C(=O)OCC(=O)NC2CCCC2)cc1OC	inactive: 14.2%
CC(C)NCC(=O)Nc1c2c(nc3ccccc13)CCC2	inactive: 2.46%
COc1ccccc1NC(=O)CNC(=O)CC12CC3CC(CC(C3)C1)C2	inactive: -13.4%
O=[N+]([O-])c1cccc(-c2nnc(-c3ccccc3)o2)c1	inactive: -7.32%

Structure (SMILES)	growth rescue (activation)
CC1(C2CC2)NC(=O)N(CC(=O)NCC(=O)Nc2ccc(F)c(F)c2F)C1=O (centres undefined)	inactive: -5.13%
Cc1ccc(C(=O)NCC(=O)O)s1	inactive: -9.72%
Cc1ccc(SCCC(=O)Nc2cccnc2)cc1	inactive: 12.8%
COc1cccc(Oc2nccc(N(C)C)c2C#N)c1	inactive: 0.535%
O=C(NCc1cccs1)C1CC(O)CN1C(=O)Nc1ccccc1 (centres undefined)	inactive: -11.9%
CCOc1ccc(C(=O)Nc2ccc(NC(=S)NC(=O)CC)cc2)cc1Cl	inactive: -10.6%
CCOc1ccc(N2C(=O)CC(SC(=NC)Nc3cccc(F)c3)C2=O)cc1 (centres undefined)	inactive: 0.857%
CCc1nc(SCc2ccc([N+](=O)[O-])cc2)n[nH]1	inactive: 9.64%
Cc1ccc(NC(=O)CCc2ccc(S(=O)(=O)N3CCOCC3)cc2)c(O)c1	inactive: -3.36%
CC1CCCN(C(=O)COC(=O)Cn2cnc3ccccc32)C1 (centres undefined)	inactive: 6.66%
COc1cc(C(=S)N2CCOCC2)cc(OC)c1OC	inactive: -9.17%
COC(=O)c1ccc(C(=O)N2CCCC(C)(C(=O)NS(=O)(=O)C3CC3)C2)cc1 (centres undefined)	inactive: -4.95%
CCOc1ccc(S(=O)(=O)N/N=C2/CCCC(=O)C2)cc1	inactive: 2.27%
CCOC(=O)c1c(NC(=O)c2ccccc2)sc2c1CCc1ccccc1-2	inactive: 8.82%
CN1c2ccccc2N(C)C1(C)c1ccccc1	inactive: -0.353%
O=C(NCCc1ccccc1)C1CCN(S(=O)(=O)N2CCCCCC2)CC1	inactive: -8.55%
CC1=C(C(=O)Nc2cccc(C(F)(F)F)c2)C2(CCCCC2)OC1=O	inactive: 11.1%
CC1CCN(CCCNC(=O)c2ccc3c(Cl)c4c(nc3c2)CCCC4)CC1	inactive: 0.309%
c1cnn(Cc2cnc(N3CCOCC3)s2)c1	inactive: 8.31%
CN(Cc1cn(C)nc1-c1ccccc1F)Cc1nccn1C	inactive: 2.57%
CC(=O)Nc1ccc(NC(C)=O)c(NC2OCC(O)C(O)C2O)c1 (centres undefined)	inactive: 24.5%
O=C1CC(c2ccc(F)cc2)CC2=C1C(c1ccc([N+](=O)[O-])o1)Nc1ccccc1N2 (centres undefined)	inactive: 5.68%

Structure (SMILES)	growth rescue (activation)
COc1cc(/C=C/C(=O)c2ccc(O)cc2)ccc1OCC#N	inactive: -14.2%
O=C(COc1ccccc1[N+](=O)[O-])N/N=C/c1ccncc1	inactive: 7.98%
NS(=O)(=O)c1ccc(CNS(=O)(=O)c2ccc(Cl)nc2)cc1	inactive: -7.11%
CS(=O)(=O)N(CC(=O)N1CCc2ccccc2C1)c1ccc(Cl)cc1F	inactive: 14.8%
Cc1cc(C)n(-c2ccc(Cl)c(C(=O)O)c2)n1	inactive: -16.7%
Cn1cc(Cl)c(C(=O)OCC(=O)c2ccccc2)n1	inactive: 20.3%
Cc1cccc(C(=O)OCC(=O)N2CC(=O)Nc3ccccc32)c1C	inactive: -18.7%
O=C(CSCc1ccccc1)N=Nc1c(O)[nH]c2ccccc12	inactive: -6.38%
CCC(=O)Nc1cccc(-c2cn3ccccc3n2)c1	inactive: 4.5%
CCOC(=O)CNC(=O)CN1C(=O)CC(c2ccco2)Sc2ccccc21 (centres undefined)	inactive: 11.2%
Cc1cccc2c1NC(=O)C21OCC(CO)([N+](=O)[O-])CO1 (centres undefined)	inactive: -0.997%
COc1ccccc1NC(=O)C(C)N(C)CCOc1ccccc1 (centres undefined)	inactive: 3.27%
CCc1ccccc1NC(=O)Cn1nnc(C(=O)NCc2cccs2)c1N	inactive: 18.3%
Cn1nc(C(C)(C)C)cc1C(=O)N1CCCCC1c1cc(C(=O)Nc2ccc(F)c(Cl)c2)no1 (centres undefined)	inactive: 6.42%
CCc1c(O)nc2ccccn2c1=O	inactive: 15.2%
Cc1c(Cl)cccc1NC(=O)CCCn1cnc([N+](=O)[O-])n1	inactive: 39.4%
Cc1cc(=O)oc2c3c(cc(OCC(=O)NCCC(=O)N[C@@H](C)C(=O)O)c12)OC(C)(C)CC3	inactive: 3.39%
COc1cc([N+](=O)[O-])ccc1NC(=O)COC(=O)c1c[nH]c(=O)[nH]c1=O	inactive: 12.5%
CCOc1ccc(NS(=O)(=O)c2cc(NC(=O)CCC(=O)c3cccs3)ccc2Cl)cc1	inactive: 6.97%
Cc1ccc(CNC(=O)c2nc3nc(C)cc(C)n3n2)cc1	inactive: 8.06%
Cc1cc(C(F)(F)F)n2nc(C)c(-c3ccc(Cl)cc3)c2n1	inactive: 22.1%
COc1cc(/C=N/NC(=O)c2ccoc2C)ccc1O	inactive: 6.13%

Structure (SMILES)	growth rescue (activation)
Cc1cc(C(=O)Nc2ccc3ccccc3c2)c(C)o1	inactive: 16.7%
CCN(CC)c1ccc(N)cc1S(=O)(=O)Nc1ccccc1OC	inactive: -15.7%
CC(=O)N1CCC(N(CCN2CCOCC2)C(=S)Nc2ccc(C)cc2)CC1	inactive: 17.4%
CCCCn1c(N)c(Sc2ccc([N+](=O)[O-])cc2)c(=O)[nH]c1=O	inactive: -22.2%
Cn1c(=O)[nH]c(=O)c2c1nc(N1CCNCC1)n2CCOc1ccccc1	inactive: 14.1%
CCOC(=O)C(=O)Nc1ncc(Cl)s1	inactive: 29.8%
CC1(C)NC(=O)N(Cc2cc(=O)n3ccsc3n2)C1=O	inactive: -6.23%
COc1cc(CNc2ncnc3c2ncn3[C@H]2CN(Cc3cccc(C(F)(F)F)c3)C[C@@H](COC(C)=O)O2)cc(OC)c1OC	inactive: 3.32%
COCCn1cc(C(=O)NCc2ccco2)c2c3ccccc3n(C)c2c1=O	inactive: 4.44%
O=C(Cc1cccs1)Nc1ccccn1	inactive: -8.71%
Cc1cccc(NS(=O)(=O)c2cc(C(=O)N3CCOCC3)ccc2Cl)c1	inactive: -15.4%
CC1CCCC(C)N1C(=O)COc1ccc(C(=O)N/N=C/c2ccc(C(=O)O)cc2)cc1 (centres undefined)	inactive: -0.75%
CCc1nnc(NC(=O)c2oc3ccc(Br)cc3c2C)s1	inactive: 13.6%
CNc1ccc(-c2ccccc2CO)cn1	inactive: 11.8%
COc1cccc(NC(=O)CN2C(=O)NC3(CCCC3)C2=O)c1	inactive: 10.5%
COc1ccc(-c2c(-c3ccc(OCC(=O)NN)cc3O)n[nH]c2C)cc1	inactive: 24.6%
COc1ccc(-c2cc(-c3n[nH]c(=S)n3-c3ccccc3Cl)[nH]n2)cc1	inactive: 4.2%
COc1cc(NC(=O)c2ccc(-c3cn[nH]c3)c3ccoc23)cc(OC)c1OC	inactive: 7.89%
CCOc1ccccc1C(C(=O)NC1CCCCC1)N(C(=O)c1csnn1)C1CC1 (centres undefined)	inactive: -4.07%
Cc1ccc(/C=C2\Oc3cc(OCC(=O)NN)ccc3C2=O)o1	inactive: 9.46%
CCNC(=O)N(C)c1c(CC)nc2ccc(C(=O)N3CCN(S(=O)(=O)CC)CC3)cn12	inactive: -1.71%
